Data reported in PubChem BioAssay AID2546 (National Center for Advancing Translational Sciences (NCATS), 2010).
About 11,000 (3.5%) of roughly 310,000 compounds were called active. The inconclusive results got no clear call from the source; some entries with a clear call stand among them for comparison. Calls follow the shape of the dose curve; as a rule, active = well fitted inhibition curve with a large enough effect; inconclusive = small, poorly fitted or top-dose-only effect, or effect the other way; inactive = flat fitted curve, though single readings scatter. Potencies of inconclusive entries are left out as doubtful fits.

assay: VP16 counterscreen qHTS for inhibitors of ROR gamma transcriptional activity; details: Drosophila S2 Gal4-VP16 UAS-luciferase, luminescence, 20 h; activity, negative = inhibition: at 53.6 µM (top of the series);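 also: Gal4-VP16 expression switched on by copper sulfate through the metallothionein promoter; nearly all actives have a fitted effect of over 50% in size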
% is scaled to controls: 0 for no effect and ±100 for the full control effect; potency is read from the fitted curve at half-maximal effect; tags tell the direction and shape of the fitted curve.

Structure (SMILES)	Potency	activity, negative = inhibition
Cc1ccc(N2C(=S)N=C(Nc3ccccc3C)C23CCOC(C)(C)C3)cc1 (centres undefined)	active: 12.6 µM	–
COc1ccc(-c2c3c(=O)n(C)c(=O)n(C)c3cn2-c2ccccc2O)cc1	inactive	–
S=c1[nH]nc(COc2ccccc2)n1/N=C/c1ccc(Br)s1	inconclusive [inhibitor, single point]	–
COc1ccc(C(=O)NC(=S)Nc2ccc(Cl)c(C(=O)O)c2)cc1	inconclusive [inhibitor, partial curve]	–
CCCCC1(CO)C(=O)N(c2ccccc2)N(c2ccccc2)C1=O	inactive	–
Cc1nc2ccccc2n1CCc1nc2c3ccccc3nc(SCC(=O)NCc3ccco3)n2n1	inconclusive [inhibitor, single point]	–
CCOC(=O)c1cc2c(nc1NC(=S)NCc1ccccc1)CCCC2	active: 3.55 µM	–
Cc1nc(N2CCN(S(=O)(=O)c3cccc4nonc34)CC2)c2c3c(sc2n1)CCCC3	inactive	–
CCCCC(=O)NC(=S)Nc1cccc(Cl)c1N1CCCCC1	active: 5.01 µM	–
Clc1cccc(-c2ccc(CNCc3ccccn3)o2)c1	inconclusive [inhibitor, single point]	–
Cc1cc(Cl)ccc1NC(=S)Nc1cccnc1	inconclusive [inhibitor, single point]	–
CCCCCCCCCCOC(=O)Cn1c(COc2ccccc2OC)[n+](C)c2ccccc21	active: 4.47 µM	–
CCC1(CC)NC(=O)N(Cc2nc3ccccc3s2)C1=O	active: 3.55 µM	–
Cc1ccc(-c2nc(-c3ccncc3)no2)c(Cl)c1	inconclusive [inhibitor, single point]	–
CCOC(=O)N1CCN(CC(O)COC2CC(C)CC(C)(C)C2)CC1 (centres undefined)	inconclusive [inhibitor, single point]	–
CCCn1nc([N+](=O)[O-])c(C(C#N)c2nc3ccccc3o2)c(Cl)c1=O (centres undefined)	inconclusive [inhibitor, single point]	–
Cc1ccc(-c2cc(-c3ccccc3)[nH]c(=S)c2C#N)cc1	inconclusive [inhibitor, single point]	–
c1ccc(CCCNc2ncnc3nc[nH]c23)cc1	inactive	–
Cc1ccc(NC(=O)c2sccc2-n2cccc2)c(Cl)c1	inconclusive [inhibitor, single point]	–
CCCCOC(=O)c1c(C)oc2ccc(NS(=O)(=O)c3ccc4c5c(cccc35)C(=O)N4)cc12	inactive	–
FC(F)(F)c1ccc(Cl)c(NC(=S)N/N=C/c2ccccc2Cl)c1	inconclusive [inhibitor, partial curve]	–
CCCCN1CNC(=S)N(Cc2ccccc2)C1	active: 5.62 µM	–
Cn1cc(CN2CCN(c3ccc(Cl)cn3)CC2)c(-c2ccccc2F)n1	inactive	–
Cc1cc(C(=O)NC2CCCc3c2cnn3-c2cccc(C)c2C)no1 (centres undefined)	inconclusive [inhibitor, single point]	–
Cc1c(C)n(Cc2ccccc2)c2ncnc(NCCCO)c12	inactive	–

Structure (SMILES)	Potency	activity, negative = inhibition
CCCC(=O)NC(c1ccc2c(c1)OCO2)c1cc(Cl)c2cccnc2c1O (centres undefined)	active: 1.26 µM	–
N#Cc1cccc(-c2ccc3ncnc(NCc4cccnc4)c3c2)c1	inconclusive [inhibitor, partial curve]	–
CCn1c(=O)n(CC)c2cc(N3CCCC3)c(NC(=O)c3cc(Br)ccc3OC)cc21	inconclusive [inhibitor, single point]	–
O=C(C1CCN(S(=O)(=O)c2ccccc2)CC1)N1CCN(c2ccccc2)CC1	inconclusive [inhibitor, full curve, poor fit]	–
Fc1ccccc1/C=C/c1ccc2ccccc2n1	inconclusive [inhibitor, single point]	–
Cc1ccc(CNC(=S)NC2CCCCC2)cc1	active: 3.98 µM	–
OC(CNCCc1ccc(Cl)cc1)COCc1ccco1 (centres undefined)	inactive	–
CC1(C)CC(=O)C(N=Nc2ccc(-c3ccccc3)cc2)=C(O)C1	inconclusive [activator, full curve, poor fit]	–
COc1ccc2[nH]c(C)c(CCNC(=S)Nc3cccc(C)c3C)c2c1	inconclusive [inhibitor, single point]	–
OCc1ccccc1OCCOc1ccc(Cl)c2cccnc12	inactive	–
COc1cccc(OCc2cc(/C=N/NC(=O)c3ccn[nH]3)ccc2OC)c1	inactive	–
O=C(CC(SCCO)c1ccc([N+](=O)[O-])cc1)c1ccco1 (centres undefined)	inconclusive [inhibitor, single point]	–
Cc1cc(Cl)ccc1C(=O)C1CCCN(C(=O)c2snnc2C)C1 (centres undefined)	inconclusive [inhibitor, single point]	–
Cc1cc(C)c(C(=O)CC(=O)c2ccccc2Cl)c(O)c1	active: 4.47 µM	–
CC(C)CC1NC(=S)N(C2CCCCC2)C1=O (centres undefined)	inconclusive [inhibitor, single point]	–
Cc1cccc(NC(=O)c2cc(S(=O)(=O)c3ccccc3)ccc2Cl)c1	inactive	–
CCc1ccc(Nc2nc(N)nc(CSc3nnnn3-c3ccccc3)n2)cc1	inconclusive [inhibitor, single point]	–
Cc1cccc(C(=O)Nc2nnc(-c3ccncc3)o2)c1	active: 2.82 µM	–
C=CCCCCCCCCc1nc(SCC(=O)O)n[nH]1	inactive	–
COC(=O)NC(CC(C)=O)c1cccs1 (centres undefined)	–	inactive: 0.994% [at 10 µM]
CCC(=O)Nc1cccc(-c2cnc3ccccc3n2)c1	inconclusive [inhibitor, full curve, poor fit]	–
CC(=O)Nc1nc(-c2ccccc2)c(-c2ccccc2)o1	inconclusive [inhibitor, single point]	–
C[N+](C)(CC#Cc1ccccc1)CC(=O)c1ccccc1	inconclusive [activator, single point]	–
CCC(Sc1nc2ccccc2o1)C(=O)Nc1nnc(C)s1 (centres undefined)	inconclusive [inhibitor, single point]	–
